# Data: PubChem BioAssay (Tox21)
# Values joined by “and” are separate entries in the source; they are usually repeats but may differ in a detail not shown here. Equal entries are not always repeated. Inconclusive means that the source gave no clear call. Such entries were picked first, then a sample of the others. For part of these data: Potencies beside an inconclusive call are fits to weak or partial responses and may not hold up. Active and inactive are the calls of the source. Calls come from the whole dose curve; as a rule, active = well fitted curve in the direction sought with a large enough effect in the repeat runs; inconclusive = weak or mixed curves; inactive = no such curve, though single readings can be large; an effect the other way counts as inactive or inconclusive.
# Experiments:
# [1] = A CellTox Green Cytotoxicity Assay to monitor cytotoxicity in HEK293 cells - 32 hour (AID 1224881); note: nearly all actives have a fitted effect of over 40% in size; note: potency is the fitted concentration of half-maximal effect
# In short: (§1)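 Cells (HEK293, 600/well) and dye reagent are dispensed together. After 5 h at 37 C, 23 nL compound is pinned in. Plates stay at 37 C for 40 h with fluorescence read at 0h, 8h, 16h, 24h, 32h and 40h.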
# [2] = biological target: Estrogen receptor (Homo sapiens) (UniProt P03372); experiment: qHTS assay to identify small molecule antagonists of the estrogen receptor alpha (ER-alpha) signaling pathway using the BG1 cell line in the presence of 0.1 nM 17-beta-estradiol (AID 1259244); note: nearly all actives have a fitted effect of over 50% in size; note: potency is the fitted concentration of half-maximal effect
# Chain of UniProt P03372 (P03372 whole entry, looked up): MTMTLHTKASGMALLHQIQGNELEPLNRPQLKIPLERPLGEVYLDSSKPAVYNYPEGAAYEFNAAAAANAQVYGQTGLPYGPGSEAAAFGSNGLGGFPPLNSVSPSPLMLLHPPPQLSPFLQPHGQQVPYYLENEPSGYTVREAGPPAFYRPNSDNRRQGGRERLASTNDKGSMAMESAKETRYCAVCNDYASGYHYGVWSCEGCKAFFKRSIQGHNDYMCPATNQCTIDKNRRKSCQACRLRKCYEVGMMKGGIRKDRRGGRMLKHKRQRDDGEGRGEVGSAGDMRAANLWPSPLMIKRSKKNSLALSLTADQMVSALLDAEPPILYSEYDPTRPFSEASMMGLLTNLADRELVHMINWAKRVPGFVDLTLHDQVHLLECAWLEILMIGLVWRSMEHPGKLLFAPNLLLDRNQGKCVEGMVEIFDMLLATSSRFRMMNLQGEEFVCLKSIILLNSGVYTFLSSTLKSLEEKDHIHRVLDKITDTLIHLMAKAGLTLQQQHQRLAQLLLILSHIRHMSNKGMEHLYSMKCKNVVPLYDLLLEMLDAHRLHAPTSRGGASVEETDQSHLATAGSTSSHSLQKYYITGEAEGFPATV
# In short: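 Antagonist mode: compounds in DMSO are pinned onto VM7Luc4E2 reporter cells, 0.1 nM final 17beta-estradiol is added, and after 22 h at 37C luciferase luminescence is measured with ONE-Glo.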
# [3] = qHTS assay to identify small molecule HDAC inhibitors (AID 1259364); note: potency is the fitted concentration of half-maximal effect;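 note: wild-type HCT-116 cells with endogenous class I/II HDAC activity; nearly all actives have a fitted effect of over 45% in size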
# In short: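 Cells (HCT-116, wild type) are seeded at 1,500 per well, incubated overnight, treated with compound in DMSO for 2 hr, then developed with HDAC-Glo I/II reagent for 30 min at room temperature.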
# [4] = qHTS RealTime-Glo MT Cell Viability Assay in HEK293 cells - 24 hour (AID 1224886); note: nearly all actives have a fitted effect of over 50% in size; note: potency is the fitted concentration of half-maximal effect
# In short: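 Tox21 10K qHTS, HEK293, 600 cells/well, RealTime-Glo reagent co-dispensed with cells; 5 h preincubation, compound by pintool, 37 C, luminescence at 0–40 h.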
# [5] = A CellTox Green Cytotoxicity Assay to monitor cytotoxicity in HEK293 cells - 16 hour (AID 1224888); note: nearly all actives have a fitted effect of over 35% in size; note: potency is the fitted concentration of half-maximal effect
# In short: as §1
# [6] = A CellTox Green Cytotoxicity Assay to monitor cytotoxicity in HepG2 cells - 8 hour (AID 1224890); note: nearly all actives have a fitted effect of over 45% in size; note: potency is the fitted concentration of half-maximal effect
# In short: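 Cells and non-lytic dye reagent are dispensed together (600 HepG2 cells/well) and incubated 5 h before DMSO compound transfer. Kinetic fluorescence is then recorded in the same wells during 40 h at 37 C.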
# [7] = qHTS assay to identify small molecule agonists of the sonic hedgehog signaling (Shh) pathway - cell viability counter screen (AID 1259366); note: potency is the fitted concentration of half-maximal effect; nearly all actives have a fitted effect of over 50% in size
# In short: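 Same-well cytotoxicity read. Gli1-Luc reporter 3T3 cells; compounds 24hr, 37C/5% CO2; CellTiter-Fluor fluorescence.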
# [8] = qHTS assay to identify small molecule antagonists of the sonic hedgehog signaling (Shh) pathway - cell viability counter screen (AID 1259367); note: nearly all actives have a fitted effect of over 55% in size; note: potency is the fitted concentration of half-maximal effect
# In short: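 Viability was read by CellTiter-Fluor fluorescence in the same wells, reagent added 23 hr into compound treatment and incubated 1 hr at 37C. The 3T3 Gli1-Luc reporter cells (2,000/well) received conditioned medium after compound and ran 24 hr.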
# [9] = qHTS RealTime-Glo MT Cell Viability Assay in HEK293 cells - 8 hour (AID 1224887); note: potency is the fitted concentration of half-maximal effect; nearly all actives have a fitted effect of over 50% in size
# In short: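 Real-time viability in HEK293: signal arises when living cells convert a prosubstrate for NanoLuc in the medium, so luminescence tracks viable cell number. Compound (23 nL, DMSO) added 5 h post-seeding; kinetic reads at 0–40 h, 37 C.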
# [10] = biological target: Androgen receptor (Homo sapiens) (UniProt P10275); experiment: qHTS assay to identify small molecule antagonists of the androgen receptor (AR) signaling pathway using the MDA cell line in the presence of 0.5 nM R1881 (AID 1259243)
# Chain of UniProt P10275 (P10275 whole entry, looked up): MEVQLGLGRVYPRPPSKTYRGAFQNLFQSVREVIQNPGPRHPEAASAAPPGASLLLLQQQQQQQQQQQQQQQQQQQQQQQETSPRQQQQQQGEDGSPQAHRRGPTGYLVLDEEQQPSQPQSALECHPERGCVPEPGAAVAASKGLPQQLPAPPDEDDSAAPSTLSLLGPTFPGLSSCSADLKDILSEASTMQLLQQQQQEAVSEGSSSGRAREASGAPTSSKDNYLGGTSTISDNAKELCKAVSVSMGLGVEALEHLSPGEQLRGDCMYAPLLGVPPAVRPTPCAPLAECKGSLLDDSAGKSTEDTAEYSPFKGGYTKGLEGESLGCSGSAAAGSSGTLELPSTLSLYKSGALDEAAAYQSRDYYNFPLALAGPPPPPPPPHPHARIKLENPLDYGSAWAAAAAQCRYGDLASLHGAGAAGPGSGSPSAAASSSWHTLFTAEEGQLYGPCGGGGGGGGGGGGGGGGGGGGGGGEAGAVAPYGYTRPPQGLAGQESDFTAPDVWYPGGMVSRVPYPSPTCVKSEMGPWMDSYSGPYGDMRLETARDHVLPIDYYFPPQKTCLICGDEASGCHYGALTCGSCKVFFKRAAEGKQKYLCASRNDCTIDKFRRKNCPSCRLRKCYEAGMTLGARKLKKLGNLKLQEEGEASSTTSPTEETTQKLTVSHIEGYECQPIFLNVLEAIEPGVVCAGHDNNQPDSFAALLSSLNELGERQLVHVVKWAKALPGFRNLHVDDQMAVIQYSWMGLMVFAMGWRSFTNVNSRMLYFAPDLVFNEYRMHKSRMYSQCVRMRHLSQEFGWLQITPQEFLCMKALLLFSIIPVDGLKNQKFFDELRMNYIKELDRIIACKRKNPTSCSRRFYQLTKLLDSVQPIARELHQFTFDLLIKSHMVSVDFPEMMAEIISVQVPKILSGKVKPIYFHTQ
# In short: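 Stably transfected MDA-kb2 cells express luciferase from an MMTV promoter bearing both AR and GR response elements. Compounds plus 0.5 nM R1881 (final) were incubated 16 hr at 37C without CO2, then luminescence measured.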
# [11] = qHTS assay to identify small molecule antagonists of the estrogen receptor alpha (ER-alpha) signaling pathway using the BG1 cell line in the presence of 0.1 nM 17-beta-estradiol - cell viability counter screen (AID 1259241); note: nearly all actives have a fitted effect of over 40% in size; note: potency is the fitted concentration of half-maximal effect
# In short: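 Estradiol-stimulated (0.1 nM) VM7Luc4E2 cells exposed to compounds 22 hr; viability measured by fluorescence of cleaved CellTiter-Fluor substrate after 30 min.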
# [12] = qHTS RealTime-Glo MT Cell Viability Assay in HepG2 cells - 0 hour (AID 1224889); note: nearly all actives have a fitted effect of over 50% in size
# In short: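 Cells + NanoLuc/prosubstrate dispensed (600 cells/well) → 5 h at 37 C/5% CO2 → compounds in DMSO transferred → 40 h incubation at 37 C, luminescence read at 0, 8, 16, 24, 32, 40 h.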
# [13] = qHTS assay to identify small molecule antagonists of the androgen receptor (AR) signaling pathway using the MDA cell line in the presence of 0.5 nM R1881 - cell viability counter screen (AID 1259242); note: potency is the fitted concentration of half-maximal effect; nearly all actives have a fitted effect of over 45% in size
# In short: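 Steps: plate MDA-kb2 cells, rest 5 hr at 37C without CO2; pin in compounds in DMSO; add R1881 to 0.5 nM final; incubate 16 hr; add CellTiter-Fluor, 30 min; read fluorescence.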
# Tags give direction and shape of the fitted curve.
smiles,measurement,setting,value
O=C1CCCC(=O)O1,Potency,[1],inactive
same,Potency,[2],inactive
same,Potency,[3],inactive
CCCCCCCCCC(C)C=O (stereo unspecified),Potency,[1],active: 21.9 µM
same,Potency,[4],inactive
same,Potency,[5],active: 21.9 µM
same,Potency,[6],active: 24.5 µM
Cc1nc2ccc(Cl)cc2[nH]1,Potency,[1],inactive
same,Potency,[3],"inconclusive: 48.5 µM [inhibitor, partial curve]"
ICCc1ccccc1,Potency,[1],"inconclusive: 24 µM [activator, partial curve, poor fit]"
same,Potency,[6],inactive
same,Potency,[7],"inconclusive: 67.2 µM [cytotoxic, partial curve, poor fit]"
same,Potency,[8],"inconclusive: 67.2 µM [cytotoxic, single point]"
CC(C)CO,Potency,[1],"inconclusive: 0.158 µM [activator, partial curve, poor fit]"
same,Potency,[2],inactive
CC(C)=CCC[C@H](C)CC=O,Potency,[1],"inconclusive: 61.6 µM [activator, single point]"
same,Potency,[4],inactive
same,Potency,[5],"inconclusive: 54.9 µM [activator, single point]"
CCOC(=O)COC(=O)c1cc(Oc2ccc(C(F)(F)F)cc2Cl)ccc1[N+](=O)[O-],Potency,[1],"inconclusive: 61.6 µM [activator, single point]"
same,Potency,[9],active: 49 µM
same,Potency,[10],"inconclusive: 68.6 µM [inhibitor, single point]"
O=C1c2cccc(O)c2C(=O)c2c(O)cc(CO)cc21,Potency,[1],"inconclusive: 0.245 µM [activator, partial curve, poor fit]"
same,Potency,[4],"inconclusive: 27.5 µM [rising, partial curve]"
same,Potency,[9],"inconclusive: 43.6 µM [rising, partial curve]"
same,Potency,[11],inactive
OCC(CBr)(CBr)CBr,Potency,[1],inactive
same,Potency,[4],inactive
same,Potency,[3],"inconclusive: 60.9 µM [inhibitor, partial curve]"
COc1ccc(Nc2ccccc2)c(C)c1,Potency,[1],"inconclusive: 38.9 µM [activator, partial curve, poor fit]"
same,Potency,[4],"inconclusive: 38.9 µM [cytotoxic, partial curve]"
same,Potency,[9],"inconclusive: 38.9 µM [cytotoxic, partial curve]"
same,Potency,[8],inactive
CCOC(=O)CC(C)O (stereo unspecified),Potency,[1],inactive
same,Potency,[6],"inconclusive: 2.45 µM [activator, partial curve, poor fit]"
CC1=CC(C)(C)Nc2ccccc21,Potency,[1],"inconclusive: 46.5 µM [activator, single point]"
same,Potency,[2],inactive
same,Potency,[8],inactive
O=[N+]([O-])c1ccc(O)cc1C(F)(F)F,Potency,[1],inactive
same,Potency,[12],inactive
same,Potency,[13],active: 27.3 µM
COCCCCCCCCOCCC[Si](C)(O[Si](C)(C)C)O[Si](C)(C)C,Potency,[1],"inconclusive: 54.9 µM [activator, partial curve, poor fit]"
same,Potency,[11],"inconclusive: 6.86 µM [cytotoxic, partial curve, poor fit]"
same,Potency,[13],"inconclusive: 17.2 µM [cytotoxic, full curve]"
same,Potency,[2],active: 17.2 µM
same,Potency,[8],inactive
C=Cc1ccc(O)c(OC)c1,Potency,[1],inactive
same,Potency,[5],inactive
same,Potency,[2],"inconclusive: 68.6 µM [inhibitor, single point]"
CCCC[P+](CCCC)(CCCC)CCCC,Potency,[1],"inconclusive: 61.5 µM [activator, single point]"
same,Potency,[4],"inconclusive: 11.2 µM [cytotoxic, partial curve]"
same,Potency,[9],"inconclusive: 15.5 µM [cytotoxic, partial curve]"
same,Potency,[13],"inconclusive: 60.9 µM [cytotoxic, single point] and inconclusive: 61.1 µM [cytotoxic, partial curve]"
CC(C)(C)c1ccc(OCC2CO2)cc1 (stereo unspecified),Potency,[1],"inconclusive: 50 µM [activator, partial curve, poor fit]"
same,Potency,[5],"inconclusive: 56.1 µM [activator, single point]"
same,Potency,[8],"inconclusive: 5.56 µM [rising, full curve]"
C/C=C/c1ccc(OC)cc1,Potency,[1],"inconclusive: 50.6 µM [activator, single point] and inactive"
same,Potency,[7],"inconclusive: 29.8 µM [cytotoxic, partial curve, poor fit]"
C=CC(=O)NCOCCCC,Potency,[1],"inconclusive: 8.98 µM [activator, partial curve, poor fit]"
same,Potency,[3],inactive
O=C(O)[C@@H](O)[C@H](O)[C@H](O)[C@@H](O)C(=O)O,Potency,[1],inactive
same,Potency,[12],inactive
same,Potency,[8],inactive
CCN(Cc1ccccc1)c1ccccc1,Potency,[1],"inconclusive: 43.1 µM [activator, partial curve]"
same,Potency,[4],active: 21.6 µM
same,Potency,[2],"inconclusive: 76 µM [inhibitor, partial curve, poor fit]"
same,Potency,[7],"inconclusive: 60.4 µM [cytotoxic, partial curve, poor fit]"
